Measured values published in PubChem BioAssay AID1508624 (National Center for Advancing Translational Sciences (NCATS), 2021).
The whole screen tested about 48,000 compounds, of which about 120 (0.25%) were called active. About 4% were inconclusive and are not listed. Calls follow the shape of the dose curve; as a rule, active = well fitted activation curve with a large enough effect; inconclusive = small, poorly fitted or top-dose-only effect, or another doubt; inactive = no such curve, though single readings can be large or run the other way. The list shows a part of the results.

Experiment: Primary qHTS for Identification of Small Molecule Activators of Huntingtin-Antisense Promoter Activity; also: nearly all actives have a fitted effect of over 55% in size
Details: HEK293 HTT-AS promoter firefly luciferase reporter, 24 h; series mostly up to 57.5 µM; activity change, positive = activation: at the top concentration
Outline: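 Firefly luciferase signal from promoter-reporter HEK293 cells was scaled between vehicle (0%) and zero RLU (-100%). Compounds were tested at final concentrations of up to 57.5 uM over 24 h at 37 degrees C. PTC124 at 50 uM final served as control inhibitor.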

Activity change, positive = activation, inactive:
COCCNC(=O)CCc1c(C)n(C)c2cc(-c3cc(OC)c(OC)c(OC)c3)nn2c1=O -5.62%, CC1CCN(S(=O)(=O)c2ccc3nc(NCc4ccccc4)ccc3c2)CC1 -37%, O=C(Cn1nc(-c2ccc(Cl)cc2)c2ccccc2c1=O)Nc1cccc(C(F)(F)F)c1 -31.1%, Cn1c(=O)c(=O)n(C)c2cc(C(=O)NCc3ccccc3Cl)ccc21 -12.7%, COC(=O)c1scc(-c2ccc(C)cc2)c1S(=O)(=O)N1CCN(c2ccc(C)cc2C)CC1 -29.6%, COc1cccc(Nc2nc3ccccc3c3nncn23)c1 -7.3%, Cn1c(SCc2cc(=O)c3cc(Cl)ccc3[nH]2)nnc1-c1ccccc1 -30.6%, CCCNC(=O)CCCN1C(=O)CCn2nc(-c3cccn3C)cc21 -2.71%, CCc1ccc2oc(-c3ccc(NC(=O)c4cc5ccccc5o4)cc3)nc2c1 9% [at 11.5 µM, percent change from vehicle, -100% = no light], COCCCNC(=O)c1sc2nc(C)c(C(=O)Nc3ccc(C)cc3C)c(-c3ccccc3Cl)c2c1N -0.784%, COc1ccc(C(=O)NCc2ccc3c(c2)CCN3C(=O)c2ccccc2)cc1 14.2%, COc1ccc(NS(=O)(=O)c2ccc(-c3cnc(C4CC4)o3)cc2)cc1Cl -37.1%, O=C(CCSCc1cnn(-c2ccccc2)c1-n1cccc1)NCc1ccccc1Cl -15.9%, Cc1cc(C)cc(Nc2cc(C(=O)NCCCN(C)C3CCCCC3)c3ccccc3n2)c1 -28.5%, CC(=O)N[C@H]1[C@@H]([C@H](O)[C@H](O)CO)OC(C(=O)O)=C[C@@H]1N=C(N)N -9.17%, Cc1ccc(Cl)cc1N1CCN(C(=O)c2ccc(CS(=O)c3ccccc3)o2)CC1 (centres undefined) -41.7%, COCCNC(=O)c1nn(-c2ccc(C)cc2)c(=O)n(C)c1=O -10.6%, CCN(CC)CCCNC(=O)c1cn(CC(C)C)c(=O)c2c1c1ccccc1n2C -10.9%, COc1ccc(-c2nnc(SCC(=O)N3CCc4ccccc43)o2)cc1OC -2.79%, Cc1ccc2nc(-c3ccsc3)c(Nc3ccc(Cl)cc3)n2c1 -21.2%, COc1ccccc1Nc1c2c(nc3ccc(NC(=O)c4ccccc4F)cc13)CCCC2 -29.4%, Cc1cccc(-c2noc(-c3ccccc3OCC(=O)Nc3ccccc3[N+](=O)[O-])n2)c1 -7.63%, Cc1ccn2cc(CNC(=O)c3cccc(C(F)(F)F)c3)nc2c1 -17.3%, CC(=O)c1cccc(NC(=O)[C@H]2O[C@@H]3OC(C)(C)O[C@@H]3[C@H]3OC(C)(C)O[C@H]32)c1 -17.4%, COc1ccc(-c2nc3scc(CCNS(=O)(=O)c4ccc(Oc5ccccc5)cc4)n3n2)cc1 -32%, CCOC(=O)c1ccc(NC(=O)C(C)Sc2nc(=O)cc(N)n2CCc2ccccc2)cc1 (centres undefined) -25.3%, COc1ccc(OCC(=O)N(Cc2sccc2C)C2CCS(=O)(=O)C2)cc1 (centres undefined) -11.6%, O=C(NCc1ccccc1Cl)c1c2c(nc3ccccc13)C(=O)N(C1CCCCC1)C2 0.0418%, CCCCC(=O)Nc1ccc(OCc2cc(=O)n3c(C)csc3n2)cc1 2.36%, CCN(CC)c1ccc(C2C(C(=O)Nc3ccccc3C)=C(C)Nc3ncnn32)cc1 (centres undefined) -13%, COC(=O)CCCCCn1c(-c2ccccc2)cn2c3c(=O)n(C)c(=O)n(C)c3nc12 -12.3%, COc1ccc(OC)c(C(=O)CSc2ncc3c(n2)-c2ccccc2N(Cc2ccccc2C)S3(=O)=O)c1 18.7%, Cc1ccn2c(=O)cc(CSc3nnc(C)s3)nc2c1 19.1%, Cc1cc2c(cc1NC(=O)c1ccccc1Cl)n(C)c(=O)c(=O)n2C -7.48%, Cc1cccc(CCn2c(=O)c3ccccc3n(CC(=O)Nc3ccccc3F)c2=O)c1 -22.3%, CCN(Cc1ccccc1)Cc1c(O)ccc2c(=O)c(-c3ccc(Cl)cc3)c(C(F)(F)F)oc12 -5.4%, Cc1ccc(C)c(N2CCN(CCCNC(=O)c3cnn(-c4ccccc4)c3C3CCN(C(=O)OC(C)(C)C)CC3)CC2)c1 -54%, COc1ccc(NS(=O)(=O)c2ccc3[nH]c(=O)ccc3c2)cc1OC -7.43%, CCOc1ccc(S(=O)(=O)Nc2cccc(OC)c2)c2cccnc12 -30.7%, O=C1CS(=O)(=O)C2(C(=O)N(Cc3ccccc3)c3ccccc32)N1c1ccc(F)c(Cl)c1 (centres undefined) -24.1%, COc1ccc(S(=O)(=O)N(CC(=O)Nc2ccccc2Cl)Cc2ccccc2)cc1 -29.2%, Cc1ccc(CCNC(=O)CN2C(=O)COc3ccc(S(=O)(=O)N4CCCCCC4)cc32)cc1 -24.5%, CN1C(=O)c2ccccc2Sc2ccc(NC(=O)NCc3ccc(Cl)cc3)cc21 -58%, COc1ccccc1C(=O)Oc1c(Sc2ccccc2)c(C)nn1-c1ccccc1 -34.6%, CCN(CC)C(=O)Cn1c(=O)n(Cc2ccc(C(=O)NCCCOC)cc2)c(=O)c2ccccc21 -26.3%, O=C(Nc1ccc(F)cc1F)c1cc(S(=O)(=O)N2CCCCC2)c[nH]1 -24.5%, CCn1c2c(c(=O)n3ncc(C(=O)N4CCN(c5ccc(C(C)=O)cc5)CC4)c13)CN(Cc1ccc(OC)cc1)CC2 -47.9%, Cc1ccc(C)c(N2C(=O)N(Cc3cccc(C(F)(F)F)c3)c3ccccc3S2(=O)=O)c1 -27.8%, Cc1ccc(C)c(NC(=O)N2CCN3CCCCC3C2)c1 (centres undefined) -11.7%, COc1ccc(C(=O)CCC(=O)Nc2ccc(F)cc2F)cc1 -9.67%, COc1ccc(F)cc1S(=O)(=O)Nc1ccc2c(c1)CCCN2C(=O)c1cccs1 -13.2%, CCOC(=O)CSc1nc2cc(OC)c(OC)cc2c2nc(-c3ccccc3)nn12 0.854%, COC(=O)c1sccc1S(=O)(=O)N(CC(=O)NCc1ccc(C)cc1)c1ccc(C)c(C)c1 -22.5%, Cc1cc(NC(=O)c2cc(Cl)ccc2Cl)ccc1-c1cc2ccccc2oc1=O -33.7%, CCOC(=O)C1=C(C)N=C2SCCC(=O)N2C1c1ccc(OCc2ccccc2)c(OC)c1 (centres undefined) -17.6%, CC(=O)c1c(C)oc2c1cc(NS(=O)(=O)c1c(C)cc(C)cc1C)c1ccccc12 -4%, NS(=O)(=O)c1ccc(NC(=O)COc2ccc(S(=O)(=O)NC3CCCCC3)cc2)cc1 -5.07%, Cc1nc(-n2nc(C)c(CCC(C)C)c2C)sc1C(=O)Nc1cccc(Cl)c1 -2.26%, Cc1cccc(C)c1NC(=O)c1sc(-n2nc(C)c(Cc3ccc4c(c3)OCO4)c2C)nc1C -14.3%
